The results in this text go back to the supplement of paper PMC3334620.

In all, about 33,000 sequences were measured (“E-score (-0.5 to 0.5)”: median about -0.021, highest 2% from about 0.32 on). Some of the results follow.

The target of the assay is T1, Zap1 (UniProt P47043).
T1 sequence: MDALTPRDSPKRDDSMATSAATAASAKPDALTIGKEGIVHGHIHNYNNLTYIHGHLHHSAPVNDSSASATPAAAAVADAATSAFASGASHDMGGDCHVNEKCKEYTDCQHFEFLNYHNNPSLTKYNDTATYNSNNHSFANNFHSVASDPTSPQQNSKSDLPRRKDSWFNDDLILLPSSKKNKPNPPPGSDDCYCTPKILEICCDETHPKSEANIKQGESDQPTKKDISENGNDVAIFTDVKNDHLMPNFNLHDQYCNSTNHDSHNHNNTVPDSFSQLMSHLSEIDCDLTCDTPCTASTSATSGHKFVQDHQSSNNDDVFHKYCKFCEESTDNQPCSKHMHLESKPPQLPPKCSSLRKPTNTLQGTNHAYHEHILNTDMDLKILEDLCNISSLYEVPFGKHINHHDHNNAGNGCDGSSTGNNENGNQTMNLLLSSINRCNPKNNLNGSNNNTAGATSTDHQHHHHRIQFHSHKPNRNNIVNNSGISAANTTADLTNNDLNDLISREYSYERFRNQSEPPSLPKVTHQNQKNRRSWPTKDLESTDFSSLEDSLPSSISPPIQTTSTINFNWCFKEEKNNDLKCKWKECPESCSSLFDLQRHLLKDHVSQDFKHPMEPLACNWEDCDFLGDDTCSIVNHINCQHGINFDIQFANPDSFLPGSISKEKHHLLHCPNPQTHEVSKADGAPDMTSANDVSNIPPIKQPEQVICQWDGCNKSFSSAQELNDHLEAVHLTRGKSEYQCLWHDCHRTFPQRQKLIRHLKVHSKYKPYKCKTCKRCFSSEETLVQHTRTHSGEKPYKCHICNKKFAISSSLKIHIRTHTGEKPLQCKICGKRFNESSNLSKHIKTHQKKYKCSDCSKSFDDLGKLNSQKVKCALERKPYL
The assay can be described thus: PBM E-score (8-mer binding enrichment) (E-score (-0.5 to 0.5)); higher = stronger / more preferred TF binding; most listed sequences are background and not binding sites. Conditions: protein concentration: 200 nM; construct: GST-full length. The gist of the method: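 The E-score, a modified Wilcoxon-Mann-Whitney statistic, was computed by the Universal PBM Analysis Suite for every ungapped eight-base word pooled with its reverse complement. Scans behind it were normalised with masliner after bound GST-tagged yeast transcription factors were detected with fluorescent anti-GST. The proteins, at about 100-200 nM, had been applied to universal all-10-mer Agilent arrays made double-stranded by primer extension.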
On to CCTACTAC, for which the “PBM E-score” value came out at 0.0486.
Then GGCCTACC, with 0.092; and GCCGTGCA, with -0.0302.
Regarding TAACTGGA, the “PBM E-score” value is -0.0565.
Then AACTTTTA, with 0.117.
Consider CCTCGTAC, for which the “PBM E-score” value is 0.107.
Then CCTAGGTC, with 0.0805; and ATGAGTAC, with 0.0266.
With GCTTTACC the figure was 0.121.
With CCTCAAAA the figure was 0.258; with CTGTCAAG, -0.11.
With GGAACCCC, the “PBM E-score” value is 0.112.
Then CTGACAAG, with 0.0328.
With AAGACGCC the figure was 0.00252; with CTAATATA, 0.0961; with AGGCCAGG, -0.176.
Consider ATCAAAAG, for which the “PBM E-score” value was -0.022.
Then AGTAAGCC, with -0.192; and CCAATTCG, with 0.187; and ATTTCGCA, with 0.16.
Then AAGGTCTG, with 0.15; and CGTAAGTA, with 0.0115; and AGATAAGC, with -0.0625.
Then CCCAAAGG, with 0.23; and CTCACATC, with -0.0546; and CAACCAAA, with 0.213.
In the case of AGGGAGAA, the “PBM E-score” value is -0.148.
Then AACTCTAC, with -0.124; and ACAAGTAG, with -0.099; and CCTCTTAA, with 0.179.
Then CATTGCTA, with 0.0595; and CCACTACA, with -0.0603; and GTGCAATA, with 0.0673.
Then AAATGCGC, with 0.138; and GATAATGA, with 0.147.
On to GACCCATA, for which the “PBM E-score” value was 0.259.
Consider AACCGTTA, for which the “PBM E-score” value stood at 0.224.
As to AAGAAAGT, the “PBM E-score” value turned out to be 0.0759.
With AGGTGTCC the figure was 0.184.
On to ACTCACGC, for which the “PBM E-score” value was -0.0661.
With GGTCATCA the figure was 0.241; with CATCGTAA, 0.207.
With ACTCTATA the figure was -0.0812; with AGGGACCC, 0.081; with CATATATA, 0.13.
Take GAGCTACA: the “PBM E-score” value is -0.242.
Then CGCCGTTC, with -0.0417; and CCTGAGAC, with -0.047; and ACGATCGG, with -0.0894.
TCCTTTCA: the “PBM E-score” value is -0.122.
Then AGTAAAGC, with -0.036; and AACCGCCG, with 0.173; and AACAGGAC, with 0.121.
For AGACAATG, the “PBM E-score” value was 0.00616.
With CAAGATAA the figure was 0.0722.
With ATAATGGG the figure was 0.0947; with ATATGTAA, 0.132; with CGGACGAC, -0.0685.
Consider ACTCCGTA, for which the “PBM E-score” value is -0.0213.
Consider AGACCAGC, for which the “PBM E-score” value is -0.234.
Then ACGGAACT, with -0.178.
Then ATCGAAAT, with 0.0187; and AGAGATCA, with -0.0378; and CTGTAATC, with -0.0263.
Regarding CAAGTTCG, the “PBM E-score” value is -0.0204.
With ATCGACTA the figure was -0.0328.
TATCAGCA: the “PBM E-score” value was found to be 0.124.
Then TAACGGGA, with -0.206; and ACCCAAGG, with 0.3; and CAAGATGA, with -0.178.
With GCTCCGAC the figure was -0.208.
Then ATTCTGCA, with -0.0113; and ATCTGGGC, with -0.142.
AGACGTTC: the “PBM E-score” value was -0.189.
Then ATGCGCCA, with -0.0984; and CCAAACCG, with 0.122; and GTCAAGAC, with -0.0329.
With ACCTAAAG the figure was 0.219; with TGGCACCA, -0.0571; with CTTATCGC, -0.0616.
As to GACCGCAC, the “PBM E-score” value is -0.0831.
With ACGGTTCC the figure was -0.0086.
Then GCAGTCCA, with -0.126; and ATTGTGGG, with 0.053.
Then AGCGCGAT, with 0.00939; and ATCGTCAG, with -0.145.
